# Paper PMC6547688
# Substitutions are numbered along the chain they refer to. Results are given in words; binding and its absence hold for the method and conditions named. Binding seen in cells or lysates may run through a third protein. Some binding calls cover weakened binding; strength is not graded here. For part of these data: Sequences can lack the tags named with a protein.
# B1: OBI1 (ORC-ubiquitin-ligase-1), endogenous, Q5W0B1 1-726 (enzyme)
# chain: MAQTVQNVTLSLTLPITCHICLGKVRQPVICINNHVFCSICIDLWLKNNSQCPACRVPITPENPCKEIIGGTSESEPMLSHTVRKHLRKTRLELLHKEYEDEIDCLQKEVEELKSKNLSLESQIKTILDPLTLVQGNQNEDKHLVTDNPSKINPETVAEWKKKLRTANEIYEKVKDDVDKLKEANKKLKLENGGLVRENLRLKAEVDNRSPQKFGRFAVAALQSKVEQYERETNRLKKALERSDKYIEELESQVAQLKNSSEEKEAMNSICQTALSADGKGSKGSEEDVVSKNQGDSARKQPGSSTSSSSHLAKPSSSRLCDTSSARQESTSKADLNCSKNKDLYQEQVEVMLDVTDTSMDTYLEREWGNKPSDCVPYKDEELYDLPAPCTPLSLSCLQLSTPENRESSVVQAGGSKKHSNHLRKLVFDDFCDSSNVSNKDSSEDDISRSENEKKSECFSSPKTGFWDCCSTSYAQNLDFESSEGNTIANSVGEISSKLSEKSGLCLSKRLNSIRSFEMNRTRTSSEASMDAAYLDKISELDSMMSESDNSKSPCNNGFKSLDLDGLSKSSQGSEFLEEPDKLEEKTELNLSKGSLTNDQLENGSEWKPTSFFLLSPSDQEMNEDFSLHSSSCPVTNEIKPPSCLFQTEFSQGILLSSSHRLFEDQRFGSSLFKMSSEMHSLHNHLQSPWSTSFVPEKRNKNVNQSTKRKIQSSLSSASPSKATKS
# B2: ectopic OBI1, wild type (enzyme, UniProt Q5W0B1 1-726)
# chain: B1 chain
# B3: OBI1 Cys38Ser, catalytically inactive mutant (enzyme, UniProt Q5W0B1 1-726)
# chain: B1 chain with C38S
# Experiments:
# [1] = biological target: T1, ORC2 C-terminally tagged with Flag/HA (human), Q13416; assay: co-IP; TAP-TAG final eluates (anti-Flag then anti-HA, peptide elution) of Flag/HA-tagged baits from HeLa S3 Dignam nuclear extracts, analysed by western blotting; settings: remark: other sources report otherwise
# T1 chain: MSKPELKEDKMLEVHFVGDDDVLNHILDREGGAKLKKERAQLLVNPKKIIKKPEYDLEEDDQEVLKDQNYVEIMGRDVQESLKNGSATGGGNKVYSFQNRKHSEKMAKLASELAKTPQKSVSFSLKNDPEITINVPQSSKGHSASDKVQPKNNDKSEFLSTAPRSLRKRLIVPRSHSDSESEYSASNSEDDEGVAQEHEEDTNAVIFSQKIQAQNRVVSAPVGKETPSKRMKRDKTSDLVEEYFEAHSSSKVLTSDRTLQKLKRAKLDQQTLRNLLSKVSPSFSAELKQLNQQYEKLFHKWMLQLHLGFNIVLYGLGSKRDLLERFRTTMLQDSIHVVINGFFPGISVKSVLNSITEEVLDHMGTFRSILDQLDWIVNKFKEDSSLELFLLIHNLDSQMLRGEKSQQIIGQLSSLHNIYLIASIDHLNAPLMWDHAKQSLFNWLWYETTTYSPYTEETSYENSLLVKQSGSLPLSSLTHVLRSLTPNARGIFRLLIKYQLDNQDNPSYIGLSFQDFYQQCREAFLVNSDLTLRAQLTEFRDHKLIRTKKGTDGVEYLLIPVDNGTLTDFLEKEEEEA
# [2] = biological target: T2, Myc-tagged ORC3, wild type (human) (UniProt Q9UBD5); assay: co-IP; transfected cells lysed in TK300 buffer (20 mM Tris-HCl pH 7.9, 300 mM KCl, 5 mM MgCl2, 10% glycerol, 0.5% NP-40); anti-Flag agarose beads, 4 h at 4 °C; western blotting
# T2 sequence: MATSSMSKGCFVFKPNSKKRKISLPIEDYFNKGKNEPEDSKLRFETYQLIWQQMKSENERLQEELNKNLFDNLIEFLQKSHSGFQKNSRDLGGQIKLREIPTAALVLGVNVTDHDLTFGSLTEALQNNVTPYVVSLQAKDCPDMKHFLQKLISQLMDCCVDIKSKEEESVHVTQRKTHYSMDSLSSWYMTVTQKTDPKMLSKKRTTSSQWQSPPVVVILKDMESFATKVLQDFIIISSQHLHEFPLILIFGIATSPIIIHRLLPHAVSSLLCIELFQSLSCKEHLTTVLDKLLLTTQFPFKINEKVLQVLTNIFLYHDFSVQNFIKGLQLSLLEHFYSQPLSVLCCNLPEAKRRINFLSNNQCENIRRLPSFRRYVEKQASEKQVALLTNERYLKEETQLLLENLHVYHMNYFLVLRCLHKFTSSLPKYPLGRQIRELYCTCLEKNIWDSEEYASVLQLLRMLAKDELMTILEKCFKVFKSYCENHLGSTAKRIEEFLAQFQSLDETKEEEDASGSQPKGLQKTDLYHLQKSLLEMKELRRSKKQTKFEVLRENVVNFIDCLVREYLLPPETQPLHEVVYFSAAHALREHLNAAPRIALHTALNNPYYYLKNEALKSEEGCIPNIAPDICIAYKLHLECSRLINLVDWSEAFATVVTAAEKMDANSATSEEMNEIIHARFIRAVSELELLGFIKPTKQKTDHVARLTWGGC
# [3] = biological target: T3, Flag-ORC1, ectopic (human) (UniProt Q13415); assay: as above
# T3 sequence: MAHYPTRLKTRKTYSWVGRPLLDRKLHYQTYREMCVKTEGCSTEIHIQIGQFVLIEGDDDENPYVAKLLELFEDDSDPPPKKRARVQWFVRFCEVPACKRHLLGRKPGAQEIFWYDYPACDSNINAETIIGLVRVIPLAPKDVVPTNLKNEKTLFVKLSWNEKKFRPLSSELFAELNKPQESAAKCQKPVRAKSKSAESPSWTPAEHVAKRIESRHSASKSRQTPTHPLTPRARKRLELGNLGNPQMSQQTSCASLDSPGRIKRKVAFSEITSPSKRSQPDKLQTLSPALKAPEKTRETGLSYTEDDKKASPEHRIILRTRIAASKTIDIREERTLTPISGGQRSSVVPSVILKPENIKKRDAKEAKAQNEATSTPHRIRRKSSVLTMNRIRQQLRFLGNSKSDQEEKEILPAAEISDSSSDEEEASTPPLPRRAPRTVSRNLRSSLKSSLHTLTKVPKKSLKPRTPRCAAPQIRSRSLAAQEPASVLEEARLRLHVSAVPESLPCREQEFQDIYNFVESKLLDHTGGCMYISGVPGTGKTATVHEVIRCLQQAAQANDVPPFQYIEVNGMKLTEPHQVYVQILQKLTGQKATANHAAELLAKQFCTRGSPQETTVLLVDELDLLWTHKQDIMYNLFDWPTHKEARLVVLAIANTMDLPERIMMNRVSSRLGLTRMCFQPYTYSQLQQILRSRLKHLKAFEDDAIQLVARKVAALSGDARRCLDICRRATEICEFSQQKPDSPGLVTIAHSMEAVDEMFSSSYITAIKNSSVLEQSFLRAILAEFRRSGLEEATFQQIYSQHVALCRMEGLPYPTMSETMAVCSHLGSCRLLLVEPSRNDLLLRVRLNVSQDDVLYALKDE
# ORC complex (human) = ORC complex (human) (UniProt Q13415); assay: as above
# [4] = biological target: T4, Myc-tagged ORC5, wild type (human) (UniProt O43913); assay: as above
# T4 sequence: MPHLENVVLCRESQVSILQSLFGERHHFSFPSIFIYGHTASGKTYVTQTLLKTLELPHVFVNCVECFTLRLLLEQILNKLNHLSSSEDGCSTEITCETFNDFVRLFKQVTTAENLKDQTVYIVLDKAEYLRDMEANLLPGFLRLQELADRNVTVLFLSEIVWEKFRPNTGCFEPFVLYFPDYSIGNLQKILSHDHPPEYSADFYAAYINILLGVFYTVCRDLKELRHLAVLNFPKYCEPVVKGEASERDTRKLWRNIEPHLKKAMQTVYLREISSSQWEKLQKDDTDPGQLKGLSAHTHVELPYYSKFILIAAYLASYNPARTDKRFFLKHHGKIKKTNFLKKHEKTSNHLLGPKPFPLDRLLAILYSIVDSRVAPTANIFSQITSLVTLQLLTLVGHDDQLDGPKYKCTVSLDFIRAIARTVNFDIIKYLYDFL
Binder,binding [1],binding [2],binding [3],binding (ORC complex (human)),binding [4]
B1,binds,,,,
B2,,binds,binds,binds,binds
B3,,,,binds,
